Measured values as given in PubChem BioAssay AID1745853 (National Center for Advancing Translational Sciences (NCATS), 2022).
The list shows a part of the results. Further columns of the screen follow, without active or inactive calls.

Key:
Test in all cases: Primary Screen for Target Class Profiling of Small Molecule Inhibitors of Methyltransferases
[1] = biological target: Glycine N-methyltransferase (Homo sapiens) (UniProt Q14749); details: purified enzyme, MTase-Glo SAH luminescence; measured here: GNMT inhibition; at 40 µM; stronger effect = lower value
Summary of the method: (§1)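 Each enzyme was reacted with SAM and its substrate, with compounds tested once at 40 uM; SAH formed was read by MTase-Glo luminescence.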

[2] = biological target: Guanidinoacetate N-methyltransferase (Homo sapiens) (UniProt Q14353); details: purified enzyme, MTase-Glo SAH luminescence; measured here: GAMT inhibition; at 40 µM; stronger effect = lower value
Summary of the method: as §1

[3] = biological target: Histamine N-methyltransferase (Homo sapiens) (UniProt P50135); details: purified enzyme, MTase-Glo SAH luminescence; measured here: HNMT inhibition; at 40 µM; stronger effect = lower value
Summary of the method: as §1

[4] = biological target: Nicotinamide N-methyltransferase (Homo sapiens) (UniProt P40261); details: purified enzyme, MTase-Glo SAH luminescence; measured here: NNMT inhibition; at 40 µM; stronger effect = lower value
Summary of the method: as §1

[5] = biological target: Phenylethanolamine N-methyltransferase (Homo sapiens) (UniProt P11086); details: purified enzyme, MTase-Glo SAH luminescence; measured here: PNMT inhibition; at 40 µM; stronger effect = lower value
Summary of the method: as §1
% is set by controls: 0 for no effect and ±100 for the full control effect.

Row | SMILES | activity change, negative = inhibition [1] | activity change, negative = inhibition [2] | activity change, negative = inhibition [3] | activity change, negative = inhibition [4] | activity change, negative = inhibition [5]
1 | CC(C)[C@@H](C)/C=C/[C@@H](C)[C@H]1CC[C@H]2C3=CC=C4C[C@@H](O)CC[C@]4(C)C3=CC[C@]12C | -12.6% | 8.57% | 0.455% | -12% | 3.2%
2 | O=S(=O)(NCC1Cn2cccc2CN1Cc1ccccc1)c1ccccc1 (stereo not drawn) | -5.05% | 0.002% | 0.716% | -3.58% | 3.01%
3 | CCc1nc2c(=O)n(CC(=O)N3CCN(c4cccc(C)c4C)CC3)nc(C)c2s1 | -3.48% | 1.25% | -0.239% | -6.47% | 14.8%
4 | CN1[C@@H](CCC(=O)NCc2ccco2)CNC(=O)[C@@H]2[C@H]1CCN2Cc1nc2ccccc2n1C | -6.91% | 0.496% | -1.24% | -3.6% | -0.153%
5 | CN(Cc1ccccc1)C(=O)[C@H]1O[C@H](CCN2CCOCC2)CC[C@@H]1O | -3.52% | -3.8% | 0.894% | -3.56% | -0.978%
6 | COc1c/c(=C2\C=c3ccccc3=N2)[nH]/c1=C/c1[nH]c(C)cc1C |  | -25% |  | -32.8% | -18.3%
7 | O=C(NCc1ccccc1)c1ccc2c(=O)n(-c3cccc(C(F)(F)F)c3)c(=S)[nH]c2c1 | -2.36% | 0.159% | 6.66% | -17.7% | -5.63%
8 | COc1ccc(-c2cc3n(n2)CC(C)(C(=O)NCc2ccccc2OC)N(Cc2ccccc2Cl)C3=O)cc1 (stereo not drawn) | -2.26% | 0% | 1.13% | -6.04% | -0.439%
9 | CC1(C(=O)NC2CCCCC2)Cn2c(nc3ccccc32)C(=O)N1Cc1ccc2c(c1)OCO2 (stereo not drawn) | 1.99% | 0.014% | 5.66% | -1.55% | 1.11%
10 | Cc1nc2c(OCc3ccccc3)cccn2c1CC#N | -13.7% | 10.5% | 1.16% | -7.18% | 3.6%
11 | Cc1cc(C)cc(NC(=O)CSc2nnc3n(C)c(=O)c4ccc(C(=O)NC5CCCC5)cc4n23)c1 | 1.39% | 0% | 4.76% | 9.87% | 6.72%
12 | Cc1ccc(N2C(=O)c3cc(C(C)(C)C)nn3CC2(C)C(=O)NC2CCCCC2)cc1 (stereo not drawn) | -0.21% | 2.15% | 1.83% | 4.74% | 0.562%
13 | COc1ccccc1N1CCN(C(=O)CCc2conc2-c2cccc(F)c2)CC1 | -5.49% | -4.17% | -5.87% | -8.61% | -6.3%
14 | CC1(C(=O)NC2CCCC2)Cn2c(cc3ccccc32)C(=O)N1C1CCN(Cc2ccccc2)CC1 (stereo not drawn) | 2.2% | 0% | 1.38% | 1.77% | -5.13%
15 | C/C(=C\CO[C@@H]1O[C@H](CO[C@H]2OC[C@](O)(CO)[C@H]2O)[C@@H](O)[C@H](O)[C@H]1O)C(C)(C)O | 0.224% | -7.54% | 1.98% | -14.9% | -1.34%
16 | CCNC(=O)N1CCCCCCNC(=O)[C@@H]2C[C@@H](c3nc(Cc4ccccc4)no3)C[C@@H]21 | -0.562% | 0.823% | 0.892% | -0.409% | 1.61%

Row | SMILES | activity change, negative = inhibition [1] | activity change, negative = inhibition [2] | activity change, negative = inhibition [3] | activity change, negative = inhibition [4] | activity change, negative = inhibition [5]
17 | O=C(CCCc1nnc2n3nc(-c4ccccc4)nc3c3ccccc3n12)N1CCN(c2ccccc2F)CC1 | -7.84% | -3.12% | -3.77% | -8.65% | -6.86%
18 | CCOC(=O)c1cc2n(n1)CC(C)(C(=O)NCCC(C)C)N(Cc1cccc(OC)c1)C2=O (stereo not drawn) | 0.657% | 0% | 3.07% | 2.32% | -5.31%
19 | CNC(=O)C1(N2CCC[C@H]2C(=O)N2CC[C@@H](O)C2)CCCCC1 | -6.43% | -5.68% | -4.61% | -9.4% | -1.07%
20 | CCOC(=O)C1=C(C)NC(C)=C(C(=O)OC)C1c1cccc([N+](=O)[O-])c1 (stereo not drawn) | -1.29% | 9.4% | 10.1% | -16.6% | -4.08%
21 | CC1(C(=O)NC2CCCCCCC2)Cn2c(cc3sccc32)C(=O)N1Cc1ccc(Cl)cc1 (stereo not drawn) | 2.12% | 0% | 6.33% | 6.22% | 2.44%
22 | CCOC(=O)c1ccc2c(c1)[C@@H]1C=CC[C@@H]1[C@H](c1ccccc1OCc1ccccc1)N2 | -9.27% | 4.25% | -11.5% | -6.8% | -9.14%
23 | COCC1CN(C)CC12CCN(C1CCOCC1)CC2 (stereo not drawn) | -2.34% | -9.33% | -2.75% | -3.14% | -1.64%
24 | CCCCN1CCN(C(=O)c2cn3ccnc(-c4ccccc4)c3n2)CC1 | -3.84% | 0.172% | -4.96% | 1.04% | 1.38%
25 | COc1cccc(CN2C(=O)c3ccc(-c4ccco4)n3CC2(C)C(=O)NC2CCCCC2C)c1 (stereo not drawn) | 0.928% | 0% | 9.73% | 8.98% | 4.09%
26 | CCOc1ccc(C(=O)Cn2nc3n(CC(C)C)c(=O)c4ccc(C(=O)NC(C)C)cc4n3c2=O)cc1 | 8.18% | 1.31% | 5.45% | 8.08% | 7.87%
27 | CC1(C(=O)NC2CCCCCC2)Cn2c(cc3ccccc32)C(=O)N1Cc1ccc2c(c1)OCO2 (stereo not drawn) | 3.71% | 0% | 3.51% | -8.38% | -0.629%
28 | COc1ccccc1OC1(C(=O)O)CCN(C(=O)CC2CC2)CC1 | -3.67% | -5.87% | -3.26% | -4.71% | 0.44%
29 | O[Si](CCCN1CCCCC1)(c1ccc(F)cc1)C1CCCCC1 (stereo not drawn) | 3.68% | 11.8% | 0.085% | -6.92% | 7.58%
30 | COCC1CN(C2CCC2)CC12CCN(C(=O)c1ccnn1C)CC2 (stereo not drawn) | -3.38% | -3.52% | -7.91% | -5.77% | 1.2%
31 | CN(C)C(=O)N1CCC(c2nc(C3CCOC3)n[nH]2)CC1 (stereo not drawn) | -3.89% | -9.15% | -2.12% | -10.4% | -7.58%
